In the supplement of paper PMC11417369:
± gives the standard deviation of the averaged measurements. Some of the results follow.

Tested on: PfAP2-LT AP2 domain (GST-tagged)
Assay: gcPBM binding intensity (ln(normalized median fluorescence intensity)); higher = stronger DNA binding
Procedure, shortened: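 For binding intensity, the highest Masliner-normalised natural-log median intensity across replicate spots of either probe orientation was taken. Protein bound to the array was stained with Alexa488 anti-GST antibody and scanned at 488 nm. The protein, GST-tagged P. falciparum DNA-binding domains from E. coli at about 25 μg on average, had been applied for 1 h to an Agilent 4 × 180k array of primer-extended double-stranded 36-bp intergenic genomic probes and negative controls.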

Sequence | gcPBM binding intensity (ln)
AATGTAAAGAACAAAACATGCAACTAGTTTACTTTT [TGCATGCA_site841] | 8.9 ± 0.38
TAAGTATATAAAATTACACACTATTTTTTTTCAAGT [CACACA_site1792] | 8.68 ± 0.51
TAGAAAAAAGATAGCACACACGGCCCAATATATATA [CACACA_site5354] | 9.35 ± 0.43
ATGCAATAATAATGGAGTACATATTAATATTGATCA [XGTACX_site2312] | 8.89 ± 0.4
CCTTTTGGATGAAAGTGTACAGGTGAGAAAAATTCC [XGTACX_site3358] | 8.71 ± 0.47
AAAAAATATATTAAGGCACACACATACATATATATA [CACACA_site9239] | 9.41 ± 0.3
AAAACAAATAGACACGCACACAAAAAAAAAAAAAAA [CACACA_site801] | 9.38 ± 0.6
TTAATTTCGAATTATTGTACATTAATATATCTACAG [XGTACX_site3314] | 8.52 ± 0.47
GAATAAAAAAAAAAAAAAATTTATTTTATAATAAAA [CACACA_negctrl_site1514] | 7.95 ± 0.59
ATATATATATATATATGTACATAAATATAAATTTAA [XGTACX_site8715] | 8.92 ± 0.38
ATATTTATTTATATCATACACACTAATATGTATATT [CACACA_site7576] | 8.9 ± 0.42
TTTTAAAACAATGAGATTCCTTTCTTTTTTTCTTTT [CACACA_negctrl_site1320] | 8.18 ± 0.56
TATCCCTTAGAATACACACCCATATGAGGGTGAACT [CACACA_site5610] | 8.77 ± 0.3
CTTAATGATAAATACATACACACAAAAAATAATATA [CACACA_site2577] | 8.96 ± 0.45
AGTAGATTTTTATTAGTGCATTTTATACTACAAAAA | 8.38 ± 0.45
TATATGTTTAATTTCACACACAAATATACATTTTAA [CACACA_site4171] | 8.82 ± 0.49
AAGAAAATGTAGAATTAGAAATAAATGAAGAAATGA [TGCATGCA_negctrl_site548] | 8.78 ± 0.44
CATTAGCATTTTATTACACACAATAAATTAGAAGTA [CACACA_site7837] | 8.7 ± 0.45
ATTCTTAAATGTGGTTGTACATATTATCACCTTTAA [XGTACX_site8188] | 8.75 ± 0.42

Sequence | gcPBM binding intensity (ln)
TTTTTAATTTTATATACACACATAAAAGATATGAAG [CACACA_site7470] | 8.5 ± 0.4
ATATTCTCTTAAATATGTACGTATGTATATATATAT [XGTACX_site5885] | 8.86 ± 0.4
CGCAAAACAATGATACGTACATATATATATATATAT [XGTACX_site5883] | 9.88 ± 0.071
ACTTAGGAAATAAAACGTACATTAAATATATACATA [XGTACX_site2990] | 8.71 ± 0.46
TTTTATTTATTATTATGTACACACTATATTAAAACA [XGTACX_site1265] | 8.75 ± 0.37
TGAATAATCAATAGTACACACATATAAATATAAATA [CACACA_site7345] | 9.13 ± 0.42
GTATGTATGTATGTATGTACTTATTAATCAGTAAAA [XGTACX_site3844] | 8.97 ± 0.22
ATAAAAGATATGTATATGTATATGTATATATATATA [TGCATGCA_negctrl_site214] | 9.21 ± 0.25
TATAAATAAATAGATACACACATATTTATAAATACA [CACACA_site6219] | 8.87 ± 0.43
GCTTAAGGTAAATATAAAATATAGTGTATACTTTAG [XGTACX_negctrl_site585] | 8.59 ± 0.44
TTACGCTGCTATATAGTGCACATAATATATGACCTG | 8.86 ± 0.33
AAATAAAATAATAAAACATGCAAAAATAATGATTTA [TGCATGCA_site415] | 8.79 ± 0.35
ATAAAGATTAACAAAGTGCATTTATATATATAATCT [GTGCAC_site9407] | 8.7 ± 0.4
CCCAAAAAATATCATAGTACTCAACATGACTACTAT [XGTACX_site7838] | 8.87 ± 0.3
TTTTTGTTAACAATGGGTACAAAAAAAAGGAAAATA [XGTACX_site7466] | 8.54 ± 0.33
AATTTTGTATAGGTATCACACATGAAATATATTATT [CACACA_site5526] | 8.74 ± 0.4
GTGATGGTACAATATACACACTTAAAAAAAAAAAAT [CACACA_site5360] | 8.97 ± 0.49
ATTCTACGCACGCGCACACACAACAAAAAAAAAAAA [CACACA_site3538] | 9.27 ± 0.56
CATGTGTGATAATGATGTACTATATTAAGCTAGTCC [XGTACX_site2690] | 8.93 ± 0.46

Sequence | gcPBM binding intensity (ln)
TATATACATATATATTGTACTTATTTTTATAATGTC [XGTACX_site3453] | 8.87 ± 0.46
TTTATAATTCTTACAACACACAATGTACTTTTATAT [CACACA_site8340] | 8.93 ± 0.45
TTTATTTCCTTTTTGTGTACATATATATGTAATTCA [XGTACX_site1718] | 8.78 ± 0.53
TTAAGGCATCAACATAGTACAATTTTTCTATAATAA [XGTACX_site1114] | 8.48 ± 0.47
ATTTAATACAAATACACACACAAATAAATACAGATA [CACACA_site5956] | 9.47 ± 0.26
TTAAATGTAATATAATGTACGGATATTTACCATAAA [XGTACX_site1472] | 8.45 ± 0.45
TAAATATATTGGAGAGGTACACTTTTGGCATTGAAA [XGTACX_site8447] | 8.62 ± 0.46
TTATTTTTTTATTCATGTACACAAGAACATTTCATT [XGTACX_site5744] | 8.65 ± 0.42
GTATATATAATGTGCCGTACATTTATATATTCAATA [XGTACX_site1051] | 8.73 ± 0.38
GTATAATAGAAACACACACACACACCCAAAAAAAAA [CACACA_site2010] | 10.3 ± 0.39
TTGTAATAAATAAAAGTGCATATATGGTTCCACTAT [GTGCAC_site9944] | 8.63 ± 0.51
AAGTATGTATCACAAAGTACTTAAGCATATATTTAA [XGTACX_site4121] | 8.87 ± 0.46
TATAATTATATAAATTGTACATAAAAAGTTTTTACT [XGTACX_site3621] | 8.36 ± 0.4
TATTATATCTTTTCAAGTACACATAACATACTTATT [XGTACX_site1081] | 8.81 ± 0.49
ACATATTAAATATGAGTGCAATATATATATATATAA | 9.07 ± 0.35
TATATATACTTTTATGTACACACCTATAATATGGGT [CACACA_site1759] | 9.24 ± 0.48
AAATGTAATAATAAATGTACAAACATATATATGTAT [XGTACX_site8718] | 8.98 ± 0.4
AAGTTTAAAATCTTTGCACACATATAAATAAATATA [CACACA_site2554] | 8.85 ± 0.38
TGCACCCACCAACACACACACAACTAAAAAATAATG [CACACA_site2566] | 9.71 ± 0.42
